The results in this text go back to paper PMC4336329 (PLoS ONE, 2015).

Among all 310,000 compounds or so, about 14,000 (4.5%) showed an effect of 50% or more. The effect is printed as a negative number. The list shows a part of the results.
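Note: peak tail current of the secondary pulse compared with the same well before compound.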

The target of this experiment is human ether-à-go-go-related gene (hERG) potassium channel (human, UniProt Q12809). In words: primary screen, population patch clamp on CHO cells stably expressing hERG.
human ether-à-go-go-related gene (hERG) potassium channel, sequence (Q12809 whole entry, looked up): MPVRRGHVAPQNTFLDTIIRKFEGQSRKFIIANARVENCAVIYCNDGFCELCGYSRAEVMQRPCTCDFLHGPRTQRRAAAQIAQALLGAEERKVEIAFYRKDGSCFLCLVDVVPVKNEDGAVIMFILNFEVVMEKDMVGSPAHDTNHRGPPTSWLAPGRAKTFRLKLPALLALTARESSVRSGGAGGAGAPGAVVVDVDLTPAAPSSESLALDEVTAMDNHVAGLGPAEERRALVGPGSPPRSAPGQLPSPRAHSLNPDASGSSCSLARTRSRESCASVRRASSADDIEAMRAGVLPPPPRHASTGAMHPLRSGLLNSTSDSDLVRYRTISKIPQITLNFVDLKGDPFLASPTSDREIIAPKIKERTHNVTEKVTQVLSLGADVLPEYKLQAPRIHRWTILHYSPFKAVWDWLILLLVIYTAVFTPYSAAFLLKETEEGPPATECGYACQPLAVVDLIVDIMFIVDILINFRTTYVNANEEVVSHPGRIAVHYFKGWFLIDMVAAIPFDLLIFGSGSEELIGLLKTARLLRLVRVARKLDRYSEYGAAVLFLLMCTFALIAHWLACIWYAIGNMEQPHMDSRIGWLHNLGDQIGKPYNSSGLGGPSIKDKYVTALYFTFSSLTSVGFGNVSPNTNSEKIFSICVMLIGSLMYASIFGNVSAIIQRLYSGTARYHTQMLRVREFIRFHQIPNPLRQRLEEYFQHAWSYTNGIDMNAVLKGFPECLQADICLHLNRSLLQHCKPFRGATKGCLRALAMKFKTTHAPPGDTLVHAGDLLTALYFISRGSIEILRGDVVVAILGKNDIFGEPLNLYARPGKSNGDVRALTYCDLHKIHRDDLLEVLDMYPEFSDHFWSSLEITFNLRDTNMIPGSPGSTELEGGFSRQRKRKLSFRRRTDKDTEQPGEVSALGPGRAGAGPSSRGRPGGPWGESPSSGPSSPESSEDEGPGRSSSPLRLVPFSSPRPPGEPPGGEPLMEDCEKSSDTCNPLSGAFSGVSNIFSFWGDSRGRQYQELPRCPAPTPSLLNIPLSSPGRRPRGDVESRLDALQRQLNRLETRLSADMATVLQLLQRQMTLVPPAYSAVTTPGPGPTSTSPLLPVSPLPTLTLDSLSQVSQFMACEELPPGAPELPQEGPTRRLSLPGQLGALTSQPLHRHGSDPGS
Take `COc1ccccc1OCc1ccc(C(=O)NCCN(C)C)o1`: the “hERG current change (%, negative = inhibition) at 10uM” value was 0.382%.
With `COc1ccc(CN2CCOCC2)cc1Br`, the “hERG current change (%, negative = inhibition) at 10uM” value is -12%.
Turning to `COc1cc(C)c(CN2CCCCC2CO)cc1C` (centres unmarked), the “hERG current change (%, negative = inhibition) at 10uM” value is reported as -0.531%.
With `O=S(Cc1ccc(Cl)cc1)CC(O)COCc1ccc(Cl)cc1` (centres unmarked) the figure was -4.9%; with `Cc1ccc(NC(=O)COc2ccc(CCO)cc2-n2nc3ccccc3n2)cc1C`, 6.89%; with `COc1ccc2nc3oc(C(=O)NCc4cccs4)cc3cc2c1`, -8.02%.
In the case of `CN(/N=C/c1ccncc1)C1=NS(=O)(=O)c2ccccc21`, the “hERG current change (%, negative = inhibition) at 10uM” value is 2.63%.
On to `CCn1c(O)c(C=NC2CCCC(C)C2C)sc1=S` (centres unmarked), for which the “hERG current change (%, negative = inhibition) at 10uM” value stood at 27.4%.
`CCn1c(SCC(=O)Nc2ccccc2C(=O)OC)nnc1-c1ccoc1C`: the “hERG current change (%, negative = inhibition) at 10uM” value is reported as -42.4%.
`Cc1ccc(CNC(=O)c2cc3c(-c4ccc(Cl)cc4)nn(C)c3s2)o1`: the “hERG current change (%, negative = inhibition) at 10uM” value was -8.27%.
With `CN(CC(=O)NCc1cccnc1)S(=O)(=O)c1cc(Cl)ccc1Cl` the figure was -15.2%; with `CCn1cc(S(=O)(=O)Nc2ccc(C)c(Cl)c2)cn1`, -12.5%.
For the compound `CN1CCN(C(=O)/C=C/c2cn(-c3ccccc3)nc2-c2ccc3c(c2)OCCO3)CC1.Cl`, the “hERG current change (%, negative = inhibition) at 10uM” value is on record as -31%.
With `O=C(O)c1ccccc1-n1c2ccccc2c2ccccc21` the figure was 19%; with `O=C(NC(NC(=S)Nc1ccc(Cl)c(Cl)c1)C(Cl)(Cl)Cl)c1ccco1` (centres unmarked), 8.12%.
With `CCN(Cc1cnn(C)c1)C(=O)C1CCC(=O)N(CCc2ccc(OC)cc2)C1` (centres unmarked), the “hERG current change (%, negative = inhibition) at 10uM” value was found to be 14.6%.
Under `O=C(Cn1cc(C(F)(F)F)cc(Cl)c1=O)NCc1ccc(Cl)cc1Cl` stands 5.16%.
Turning to `Cc1nn(Cc2ccccc2)c(Cl)c1/C=C/C(=O)OCC(=O)N1CCCC1=O`, the “hERG current change (%, negative = inhibition) at 10uM” value is -9.13%.
Regarding `Cc1ccc(C(=O)O/N=C(\N)Cc2cccc3ccccc23)cc1`, the “hERG current change (%, negative = inhibition) at 10uM” value was found to be 20.9%.
As for `COc1cc2c(C(=O)N3CCN(c4cccc(Cl)c4)CC3)cn(C)c(=O)c2cc1OC`, the “hERG current change (%, negative = inhibition) at 10uM” value is listed as -53.1%.
As for `O=S(=O)(c1ccccc1)N1CCN=C1SCc1ccccc1Cl`, the “hERG current change (%, negative = inhibition) at 10uM” value is -8.53%.
On to `Cc1ccccc1OCCC(=O)N1CCN(S(=O)(=O)c2ccc(Cl)cc2)CC1`, for which the “hERG current change (%, negative = inhibition) at 10uM” value is -23.9%.
For the compound `COc1cc(C)c(S(=O)(=O)N2CCCC2)cc1C`, the “hERG current change (%, negative = inhibition) at 10uM” value stood at 10.4%.
Take `CC(C(=O)NCc1ccco1)c1ccc([N+](=O)[O-])cc1` (centres unmarked): the “hERG current change (%, negative = inhibition) at 10uM” value is recorded as -2.02%.
Under `CCCCn1nc(NC(=O)COC)c2cc3ccc(C)cc3nc21` stands -14.7%; under `COc1cc(C2C(C(C)=O)=C(C)Nc3ncnn32)ccc1O` (centres unmarked), 5.74%.
In the case of `Cc1nnc(NC(=O)CSc2nnc(CC(=O)Nc3ccccc3C)n2C)s1`, the “hERG current change (%, negative = inhibition) at 10uM” value was found to be 25.9%.
For the compound `CC(C)=CC(=O)Nc1nnc(C(C)C)s1`, the “hERG current change (%, negative = inhibition) at 10uM” value turned out to be 1.44%.
As to `CCn1cc(CCCC(=O)NCc2cccnc2)c2ccccc21`, the “hERG current change (%, negative = inhibition) at 10uM” value is -4.69%.
Consider `O=C(O)CC1(CC(=O)Nc2ccc3sccc3c2)CCCCC1`, for which the “hERG current change (%, negative = inhibition) at 10uM” value was 15.6%.
With `Cc1cccc2cc3c(NC(=O)C(C)C)nn(C)c3nc12` the figure was 16.9%.
As for `COc1ccc(CCn2c(C)cc(C(=O)COC(=O)c3ccc(NC(=O)CC#N)cc3)c2C)cc1`, the “hERG current change (%, negative = inhibition) at 10uM” value is -2.55%.
For `CCN(CC)CCNC(=O)c1[nH]c2ccc(OCc3ccccc3)cc2c1C`, the “hERG current change (%, negative = inhibition) at 10uM” value is -74.6%.
For `CCOC(=O)C1CCN(CCC(=O)Nc2ccc(F)cc2)CC1`, the “hERG current change (%, negative = inhibition) at 10uM” value was -31%.
On to `Cc1cccc(S(=O)(=O)NCCc2cn3ccccc3n2)c1`, for which the “hERG current change (%, negative = inhibition) at 10uM” value came out at 5.55%.
`CCCCCc1ccc(S(=O)(=O)NCCc2ccncc2)cc1`: the “hERG current change (%, negative = inhibition) at 10uM” value is listed as -30.2%.
Turning to `Cc1ccc(-c2nnn(CCC(=O)NC3CCCC3)n2)cc1`, the “hERG current change (%, negative = inhibition) at 10uM” value was -1.61%.
Consider `O=C(COc1ccc2cc(-c3ccccc3)c(=O)oc2c1)NCC1CCC(C(=O)O)CC1` (centres unmarked), for which the “hERG current change (%, negative = inhibition) at 10uM” value was 13.1%.
With `CCc1c(C)c2ccc(OC3CCCCC3=O)cc2oc1=O` (centres unmarked), the “hERG current change (%, negative = inhibition) at 10uM” value was determined as 15.5%.
With `O=C1Nc2ccccc2C1C(C[N+](=O)[O-])c1ccccc1` (centres unmarked) the figure was 6.45%; with `CCN(CC)c1ccc(N)cc1S(=O)(=O)Nc1ccccc1OC`, 6.89%; with `CC(=O)N1CC(C)Sc2ccc(S(=O)(=O)NCc3ccc(Cl)cc3)cc21` (centres unmarked), -37.8%.
For `Cc1sc(NC(=O)C2CC(Cl)=CCC2C(=O)O)c(C#N)c1C` (centres unmarked), the “hERG current change (%, negative = inhibition) at 10uM” value was found to be 16%.
On to `N#CCCNC(=O)CCN1CCCCC1`, for which the “hERG current change (%, negative = inhibition) at 10uM” value was 0.152%.
Regarding `C=CCNC(=O)c1onc(CSc2ccc(Cl)cc2)c1C(=O)O`, the “hERG current change (%, negative = inhibition) at 10uM” value is recorded as 15.2%.
On to `O=C(Nc1ccc(Cl)cc1)OCc1cc(-c2ccccc2Cl)on1`, for which the “hERG current change (%, negative = inhibition) at 10uM” value was 7.51%.
Regarding `Cc1cccc(N2CCN(C(=O)CN3C(=O)NC(C)(C)C3=O)CC2)c1C`, the “hERG current change (%, negative = inhibition) at 10uM” value is 2.51%.
Take `Cc1ccc(-n2cnnn2)cc1Cl`: the “hERG current change (%, negative = inhibition) at 10uM” value is listed as -18.8%.
For `COc1ccccc1CNC(=O)COC(=O)C12CC3CC(CC(O)(C3)C1)C2`, the “hERG current change (%, negative = inhibition) at 10uM” value is -4.75%.
Consider `O=C(COC(=O)c1cc(Cl)cc(Cl)c1)NCCN1C(=O)CSC1=O`, for which the “hERG current change (%, negative = inhibition) at 10uM” value was -10.1%.
As for `CSc1nnc2n(-c3ccc(C)cc3)c(=O)c3c4c(sc3n12)COC(C(C)C)C4` (centres unmarked), the “hERG current change (%, negative = inhibition) at 10uM” value worked out at 2.91%.
For the compound `C=CCc1cccc(CNn2cnnc2)c1O`, the “hERG current change (%, negative = inhibition) at 10uM” value amounted to 17.7%.
Take `COC(=O)C1(C)Cc2cc(OC(C)=O)c(OC(C)=O)cc2N1` (centres unmarked): the “hERG current change (%, negative = inhibition) at 10uM” value is reported as -6.01%.
Under `O=C(NCc1ccccn1)c1cc(S(=O)(=O)N2CCCCCC2)ccc1Cl` stands 5.54%; under `C[C@H](NC(=O)[C@@H]1CSC2c3ccccc3C(=O)N21)C(=O)NCCc1ccccc1` (some centres unmarked), 11.6%; under `CN(C)C(=N)c1n[nH]nc1SCc1ccc(Cl)c(Cl)c1.Cl`, 3.28%.
As for `CC(=O)c1cccc(NC(=S)NCc2ccco2)c1`, the “hERG current change (%, negative = inhibition) at 10uM” value was determined as 6.83%.
For the compound `CS(=O)(=O)N1CCC(C(=O)Nc2ccc(Oc3ccccc3)cc2)CC1`, the “hERG current change (%, negative = inhibition) at 10uM” value is on record as -11.9%.
Turning to `CCN1CCN(C(=O)C2CCN(Cc3nc(-c4cccc(Cl)c4)oc3C)CC2)CC1`, the “hERG current change (%, negative = inhibition) at 10uM” value was -42.9%.
With `O=C(O)c1ccc2c(c1)C(c1ccccc1)OC2=O` (centres unmarked), the “hERG current change (%, negative = inhibition) at 10uM” value is 3.47%.
On to `Cc1ccc2c(CSc3nnc(N)s3)cc(=O)oc2c1`, for which the “hERG current change (%, negative = inhibition) at 10uM” value is -11.6%.
On to `O=C(CSc1ncn[nH]1)N1N=C(c2ccc(Cl)cc2)CC1c1ccco1` (centres unmarked), for which the “hERG current change (%, negative = inhibition) at 10uM” value is given as -12.5%.
Consider `c1ccc(OCCSc2nnnn2-c2ccccc2)cc1`, for which the “hERG current change (%, negative = inhibition) at 10uM” value is on record as -17.6%.
As to `C#CCNC(=O)C1=C[C@@H](C2CC2)C[C@@H](OCc2ccc(CO)cc2)O1`, the “hERG current change (%, negative = inhibition) at 10uM” value worked out at 4.4%.
Take `CCC(C)[C@H](NC(=O)NC1CCN(Cc2ccccc2)CC1)C(=O)OC` (some centres unmarked): the “hERG current change (%, negative = inhibition) at 10uM” value is recorded as -8.81%.
Consider `Cn1nnnc1SCC(=O)C(C)(C)C`, for which the “hERG current change (%, negative = inhibition) at 10uM” value was determined as 17.7%.
For `O=C(CCc1nc2ccccc2c(=O)[nH]1)Nc1ccc(F)cc1`, the “hERG current change (%, negative = inhibition) at 10uM” value is -20%.
With `Cc1cccc(NC(=O)COC(=O)Cc2cccs2)c1C` the figure was 22.1%.
With `COc1ccc(C(=O)NC2CCCc3ccccc32)cc1Br` (centres unmarked) the figure was 13%; with `Cc1ccc(Nc2nc(N)nc(CSC(=S)N3CCOCC3)n2)cc1`, -35.6%; with `Cc1oc(-c2ccc3c(c2)OCCO3)cc1C(=O)NC(Cc1ccccc1)C(=O)O` (centres unmarked), 13.2%.
On to `CCOC(=O)COn1c(=O)c(=O)n(OC)c2ccccc21`, for which the “hERG current change (%, negative = inhibition) at 10uM” value was 17.8%.
Turning to `O=C(Cc1coc(-c2ccc(F)cc2)n1)Nc1ccccc1`, the “hERG current change (%, negative = inhibition) at 10uM” value was -15.4%.
As for `O=C(NCc1ccc2c(c1)OCO2)c1ccc(N2C(=O)C3CCCCC3C2=O)cc1` (centres unmarked), the “hERG current change (%, negative = inhibition) at 10uM” value is given as -16.8%.
Regarding `Cc1ccc2c(c1)c1c(n2CC(O)Cn2ccnc2C)C(=O)CCC1` (centres unmarked), the “hERG current change (%, negative = inhibition) at 10uM” value is on record as -28.4%.
In the case of `CCCCOc1ccccc1Cn1c(=O)oc2ccccc21`, the “hERG current change (%, negative = inhibition) at 10uM” value was 10.4%.
`CC(C)Cn1c(SCC(=O)Nc2ccc3[nH]c(=O)[nH]c3c2)nc2ccccc2c1=O`: the “hERG current change (%, negative = inhibition) at 10uM” value was 5.13%.
In the case of `O=C(Nc1cc(C(=O)N2CCCC2)ccc1N1CCCC1)c1ccccc1F`, the “hERG current change (%, negative = inhibition) at 10uM” value was -74.6%.
Take `Cc1cc(C(=O)N/N=C/c2ccncc2)c2ccccc2n1`: the “hERG current change (%, negative = inhibition) at 10uM” value is on record as 15.6%.
As for `Br.N=c1n(CCN2CCCCC2)c2ccccc2n1CC(=O)c1ccc(Cl)c(Cl)c1`, the “hERG current change (%, negative = inhibition) at 10uM” value is given as -72.6%.
Under `COc1ccc(NC(=O)c2ccccc2OCc2ccc(F)cc2)c(OC)c1` stands 0.588%; under `CCSc1nnc2nc(C)cc(C)n12`, 8.03%.
Consider `Cc1ccc(Oc2nsnc2N2CCOCC2)cc1`, for which the “hERG current change (%, negative = inhibition) at 10uM” value is -15.9%.
With `Oc1ccc(/C=N/NP(=S)(c2ccccc2)c2ccccc2)cc1O` the figure was -3.93%; with `O=C(COC(=O)c1cc(S(=O)(=O)NCc2ccccc2)ccc1O)NCc1ccccc1`, -1.07%; with `COc1ccc(C(c2c(C)[nH][nH]c2=O)c2c(C)[nH][nH]c2=O)cc1Br`, 3.87%.
Under `CC(C)c1ccc(/C=C/c2[nH]c(=O)[nH]c(=O)c2[N+](=O)[O-])cc1` stands 12.5%; under `C=CCNC(=S)N/N=C(\C)c1cccc(OC)c1`, -15.4%.
With `Cc1cc(=O)oc2cc(NC(=S)NNC(=O)c3c(Cl)cnn3C)ccc12` the figure was 26%; with `COC(=O)c1ccc2c(c1)C(=O)/C(=C/c1ccc(O)cc1)O2`, 18.2%.
As to `N#Cc1c(NC(=O)C(=O)NCCCN2CCOCC2)sc2c1CCC2`, the “hERG current change (%, negative = inhibition) at 10uM” value is on record as -4.52%.
In the case of `FC(F)(F)c1nnc2c(Sc3ccccc3)nc3ccc(Cl)cc3n12`, the “hERG current change (%, negative = inhibition) at 10uM” value came to 12.2%.
